# Source: the supplement of paper PMC12067230
# The data scatter; read single values as rough.
# Experiment: amyloid nucleation score relative to library mode (yeast Sup35 reporter selection) (log enrichment difference); higher = more amyloid nucleation; sequences are the first 22 residues of the Bri2 peptide extended by up to 12 random residues
# Conditions: random library (experiment): 1;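 active = nucleation score significantly above 0 at FDR 0.05; inactive = not significantly above 0 or absent from output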
# Protocol: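 Random C-terminal extensions of the 22-aa Bri2 peptide by 12 NNK codons; premature stops give shorter extensions. Peptides were fused to the Sup35 nucleation domain in S. cerevisiae [psi-pin-] and selected on -ADE-URA plates for 7 d at 30 °C. The nucleation score is log(output/input), centred to the mode of each of 3 independent libraries (1 input, 3 technical output replicates), with duplicates merged. Sequences absent from the output ('random_non_nuc') were imputed with the library mode value, so they are given as censored (<). Nucleators are scores significantly >0 at FDR 0.05.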
# 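Further: [psi-pin-] Saccharomyces cerevisiae expressing SupN fusions, induced by 100 µM Cu2SO4, selected 7 d at 30 °C without adenine and uracil, scored by deep sequencing of output versus input.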
row,Sequence,amyloid nucleation score
1,EASNCFAIRHFENKFAVETLICCSCVWSEWIQGS,8.72
2,EASNCFAIRHFENKFAVETLICCSCWS,9.16
3,EASNCFAIRHFENKFAVETLICCSDIWVQRKLRG,7.33
4,EASNCFAIRHFENKFAVETLICCSDVGVVFVADK,8.58
5,EASNCFAIRHFENKFAVETLICCSELRSAGRWVS,inactive
6,EASNCFAIRHFENKFAVETLICCSET,6.04
7,EASNCFAIRHFENKFAVETLICCSEVHW,8.57
8,EASNCFAIRHFENKFAVETLICCSG,2.18
9,EASNCFAIRHFENKFAVETLICCSGLHNAEEESK,8.27
10,EASNCFAIRHFENKFAVETLICCSGTEEAAGVGC,5.43
11,EASNCFAIRHFENKFAVETLICCSGVNTRRQYWR,6.74
12,EASNCFAIRHFENKFAVETLICCSIPQKVWGFPG,8.56
13,EASNCFAIRHFENKFAVETLICCSIYYKSWCGRT,6.73
14,EASNCFAIRHFENKFAVETLICCSKGHCVRCGRG,inactive
15,EASNCFAIRHFENKFAVETLICCSKSSQLVRHRL,inactive
16,EASNCFAIRHFENKFAVETLICCSL,7.44
17,EASNCFAIRHFENKFAVETLICCSLEWL,9.55
18,EASNCFAIRHFENKFAVETLICCSLTRLFNEPLG,8.79
19,EASNCFAIRHFENKFAVETLICCSMACRLNEVHG,3.97
20,EASNCFAIRHFENKFAVETLICCSMDASWAWSEL,8.69
21,EASNCFAIRHFENKFAVETLICCSNQDVRWLCSV,7.24

# Same assay, conditions: random library (experiment): 2
row,Sequence,amyloid nucleation score
1,EASNCFAIRHFENKFAVETLICCSCFFTFLATTR,8.29
2,EASNCFAIRHFENKFAVETLICCSDL,8
3,EASNCFAIRHFENKFAVETLICCSFSARRVLRST,7.05
4,EASNCFAIRHFENKFAVETLICCSIHFRILRSSV,4.03
5,EASNCFAIRHFENKFAVETLICCSIRCLFWFSWK,inactive
6,EASNCFAIRHFENKFAVETLICCSIVKSRMGRCV,5.46
7,EASNCFAIRHFENKFAVETLICCSKSYLYAPS,6.53
8,EASNCFAIRHFENKFAVETLICCSLQYLLVFCRT,1.73
9,EASNCFAIRHFENKFAVETLICCSLWYIEYTSGR,6.97
10,EASNCFAIRHFENKFAVETLICCSMEHVRVMRSI,5.77
11,EASNCFAIRHFENKFAVETLICCSMLFITCNMWL,inactive
12,EASNCFAIRHFENKFAVETLICCSMYLIWMSQGS,6.06

# Same assay, conditions: random library (experiment): 3
row,Sequence,amyloid nucleation score
1,EASNCFAIRHFENKFAVETLICCSAGTERRWAWS,8.35
2,EASNCFAIRHFENKFAVETLICCSDSAGMHPRRL,3.82
3,EASNCFAIRHFENKFAVETLICCSETCTKWNWEW,5.2
4,EASNCFAIRHFENKFAVETLICCSFAVQISEVQR,8.46
5,EASNCFAIRHFENKFAVETLICCSGCLRRLVLGV,inactive
6,EASNCFAIRHFENKFAVETLICCSGCSMSDSVRR,8.35
7,EASNCFAIRHFENKFAVETLICCSGEMVLSCAKR,8.28
8,EASNCFAIRHFENKFAVETLICCSGH,7.29
9,EASNCFAIRHFENKFAVETLICCSGHKMYVITSP,inactive
10,EASNCFAIRHFENKFAVETLICCSGRLYWHVVFR,inactive
11,EASNCFAIRHFENKFAVETLICCSKSTLQGWVVG,6.89
12,EASNCFAIRHFENKFAVETLICCSLATSHNCDVL,8.83
13,EASNCFAIRHFENKFAVETLICCSLKDVSSGPTR,6.36
14,EASNCFAIRHFENKFAVETLICCSLPGLAFVSGW,7.97
15,EASNCFAIRHFENKFAVETLICCSLVEASAEFEG,9.05
16,EASNCFAIRHFENKFAVETLICCSMLEPCRCRLV,8.5
